Laboratory results from PubChem BioAssay AID493208 (National Center for Advancing Translational Sciences (NCATS), 2011).
Hit rate of the full screen: of about 44,000 compounds, about 340 (0.77%) were called active. Not shown: some 5% with an inconclusive outcome. The call rests on the fitted dose curve; in most records, active means well fitted inhibition curve with a large enough effect; inconclusive means small, poorly fitted or top-dose-only effect; inactive means flat fitted curve, though single readings scatter. Some of the results follow.

assay: Acumen qHTS Assay for Inhibitors of the mTORC1 Signaling Pathway in MEF (Tsc2-/-, p53-/-) Cells: Sytravon; conditions: phospho-rpS6 immunofluorescence/PI, 24 h; series mostly up to 38.3 µM; activity change, negative = inhibition: at the top concentration;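 further: plate controls were DMSO for no effect and rapamycin for full effect; nearly all actives have a fitted effect of over 50% in size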
In short: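 Cell-based qHTS: Tsc2-/- p53-/- MEF, 24 h cpd, 37 °C; fix/perm, anti-phospho-S6 Alexa-488 + PI; Acumen 488 nm scan; pS6/PI ratio, % positive cells; rapamycin 7.5 nM = inhibition ref; PI count = viability.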

SMILES	activity change, negative = inhibition
COc1ccc(CCNC(=O)Cn2nnc(-c3cccc(C(F)(F)F)c3)n2)cc1OC	inactive: 3.56%
CC(CNC(=O)c1ccc(Cn2c(SCc3ccccc3)nc3cccnc32)cc1)c1ccccc1 (centres undefined)	inactive: -10.6%
COc1ccc2oc(=O)cc(CN3CCN(C(=O)c4ccccc4)CC3)c2c1	inactive: 3.8%
O=C(Nc1ccc(O)c(-c2nc3ccccc3o2)c1)c1cccs1	inactive: 3.6%
CCOc1ccc(NC(=O)c2oc3ccccc3c2NC(=O)Cc2ccc(OC)c(OC)c2)cc1	inactive: -2.72%
Cc1ccc(C)c(CN2C(=O)c3ccccc3Sc3ccc(C(=O)NCCCOC(C)C)cc32)c1	inactive: -0.694%
CCOC(=O)c1ccc(N2C(=O)c3n[nH]c(C)c3C2c2ccc(C(C)C)cc2)cc1 (centres undefined)	inactive: 8.47%
O=C(CSc1n[nH]c(-c2ccccc2Cl)n1)N1CCN(c2ccc(F)cc2)CC1	inactive: -8.7%
CC(C)c1nn2c(=O)cc(COC(=O)c3ccc(NC(=O)c4ccccc4Cl)cc3)nc2s1	inactive: 0%
Cn1cc(S(=O)(=O)N2CCCC2)cc1C(=O)Nc1ccc(C(F)(F)F)cc1	inactive: -12.8%
O=C(Nc1ccc(NC(=O)c2ccc(Br)cc2)c(Cl)c1)c1ccc(Br)cc1	inactive: 2.29%
COc1ccccc1-c1nnc(C2CCN(S(=O)(=O)c3ccccc3)CC2)o1	inactive: -13.3%
COc1ccc(C(=O)Nc2nc3ccc(S(=O)(=O)N4CCCC4)cc3s2)cc1	inactive: 2.82%
COc1cccc2cc(-c3nnc(-c4ccc(Cl)cc4)o3)c(=O)oc12	inactive: 1.58%
CCc1nn(CC(=O)N2CCN(c3cccc(C(F)(F)F)c3)CC2)c(=O)c2cc3occc3n12	inactive: -1.26%
COc1cccc(N2CCN(C(=O)Cn3cnc4onc(-c5ccc(F)cc5)c4c3=O)CC2)c1	inactive: -8.52%
CCCCCn1c(=O)[nH]c2cc(C(=O)Nc3ccc(OC)c(OC)c3)ccc2c1=O	inactive: 0.403%
COc1cccc(-c2nc(CS(=O)(=O)CC(=O)NCCCN3CCN(C)CC3)c(C)o2)c1	inactive: 3.35%
COc1ccc(C)cc1NC(=O)C1CCCN(S(=O)(=O)c2ccc3c(c2)oc(=O)n3C)C1 (centres undefined)	inactive: 7.27%
Cc1cccc(Cn2c(SCc3ccc(C(=O)NCCc4ccccc4)cc3)nc3cccnc32)c1	inactive: -5.22%

SMILES	activity change, negative = inhibition
CC(=O)Nc1ccc(S(=O)(=O)N2CCN(c3ccccc3)CC2)cc1	inactive: 0.681%
CC(=O)Nc1cccc(NC(=O)C2(c3cccs3)CCOCC2)c1	inactive: 2.05%
Cc1ccc(SCc2nc(-c3ccc(C(=O)NCc4ccccc4Cl)cc3)oc2C)cc1	inactive: 0.0523%
CCOC(=O)CC(=O)CSc1nc2ccccc2c(=O)n1CCc1ccccc1	inactive: 1.91%
COc1cccc(-c2nnc3n(CCc4ccccc4)c(=O)c4ccccc4n23)c1O	inactive: -4.06%
COc1cccc(CNC(=O)CN(c2ccc(C(C)C)cc2)S(=O)(=O)c2c(C)n[nH]c2C)c1	inactive: 2.51%
Cn1c(=O)c(=O)n(C)c2cc(N3CCCC3)c(NC(=O)c3ccc(C(C)(C)C)cc3)cc21	inactive: 6.4%
Cc1cccc(NC(=O)CSc2cn(CC(=O)N3CCOCC3)c3ccccc23)c1	inactive: 3.24%
COc1ccc(S(=O)(=O)N(CCc2ccccc2)CC(=O)Nc2cc(C)ccc2C)cc1	inactive: -4.45%
CCc1ccc(NC(=O)C2CCN(S(=O)(=O)c3c(C)noc3/C=C/c3cccs3)CC2)cc1	inactive: -1.3%
CCn1cc(C(=O)NCCOC)c(=O)c2cc(S(=O)(=O)N3CCOCC3)ccc21	inactive: -0.156%
CCSc1nnc2c(n1)OC(c1ccc(OCC(=O)O)cc1)Nc1ccccc1-2 (centres undefined)	inactive: -3.24%
COc1cc(OC)cc(C(=O)Nc2ccc3oc(-c4ccc(Cl)cc4)nc3c2)c1	inactive: -6.68%
CCOC(=O)C1=C(c2ccccc2)Nc2ncnn2C1c1ccc(Cl)cc1 (centres undefined)	inactive: 0.904%
O=C(CCC1N=C2c3ccccc3N=C(SCC(=O)Nc3ccccc3F)N2C1=O)NCc1cccs1 (centres undefined)	inactive: -23.6%
CCOc1ccccc1CNC(=O)CN1C(=O)CCn2nc(-c3cn(C)c4ccccc34)cc21	inactive: -14.1%
O=C(c1ccc2c(c1)N(Cc1cccc(Cl)c1)C(=O)c1ccccc1S2(=O)=O)N1CCC(Cc2ccccc2)CC1	inactive: 0%
COc1ccc(CNC(=O)c2ccc3c(c2)NC(=O)C(CS(=O)(=O)Cc2ccccc2Cl)N3)cc1 (centres undefined)	inactive: 4.6%
CCc1cccc(CC)c1NC(=O)c1c(C)oc2ccc(O)c(CN3CCOCC3)c12	inactive: 2.06%
Cc1nc2ccc(S(=O)(=O)N(CC(=O)Nc3ccc(Cl)cc3)Cc3ccccc3)cc2s1	inactive: -4.84%

SMILES	activity change, negative = inhibition
CCOC(=O)c1cccc(NS(=O)(=O)c2c(C)nc3sc(C)cn3c2=O)c1	inactive: -6.25%
CSc1cccc(N2C(=O)N(CC(=O)NCc3ccccc3Cl)c3ccccc3S2(=O)=O)c1	inactive: -15.4%
CCOc1ccccc1N(C)C(=O)Cn1cnc2onc(-c3ccc(F)cc3)c2c1=O	inactive: -4.28%
CC(C)CCOc1ccc(Oc2nc(N(C)C)nc(N(C)C)n2)nn1	inactive: 3.8%
COc1ccccc1-n1ncc2c(=O)[nH]c(SCC(=O)Nc3cccc(F)c3)nc21	inactive: -6.97%
COc1ccc2c(CNCc3cccs3)c(C(=O)O)n(Cc3ccc(F)cc3Cl)c2c1	inactive: -0.715%
CCOc1ccc(C(=O)c2oc3ccccc3c2NC(=O)c2cc(-c3ccccc3)on2)cc1	inactive: 0.498%
Cc1ccc(NC(=O)C(Cc2ccccc2)n2cccc2)c(C)c1 (centres undefined)	inactive: 0.454%
Cc1cc(=O)n2c(C(=O)Nc3ccc(F)c(Cl)c3)c(C(=O)Nc3cccc(C)c3C)sc2n1	inactive: 2.52%
Cc1cc(Nc2ccc(C(C)C)cc2)nc(-n2nc(C)cc2C)n1	inactive: -24.4%
COc1ccc(NC(=O)CN(C)S(=O)(=O)c2ccc3c(c2)CCCN3C(C)=O)cc1Cl	inactive: -9.56%
CCCCCn1c(=N)c(S(=O)(=O)c2ccccc2)cc2c(=O)n3cccc(C)c3nc21	inactive: -12.6%
Cc1cccc2sc(N(Cc3cccnc3)C(=O)Cc3ccccc3)nc12	inactive: -3.03%
Cc1nnc(SCc2ccccc2Cl)c2cc3occc3n12	inactive: 3.88%
CC(C)Oc1cccc(C(=O)Nc2ccc(-c3nc4cc(Cl)cc(Cl)c4o3)cc2)c1	inactive: -0.271%
COc1cc(-c2noc(-c3ccc(NC4CCCCC4)c([N+](=O)[O-])c3)n2)cc(OC)c1OC	inactive: 0.551%
CCN(CC)C(=O)Cn1c(=O)n(CCCCCC(=O)NCc2ccccc2)c(=O)c2sccc21	inactive: 0.499%
COc1ccccc1C(=O)Nc1ccccc1SCc1cc(=O)c2ccccc2[nH]1	inactive: -16.3%
O=C(c1ccc2c(c1)N(Cc1ccccc1F)C(=O)c1ccccc1S2=O)N1CCCCC1 (centres undefined)	inactive: 3.34%
